{"source": "PubChem BioAssay AID652106", "about": "(National Center for Advancing Translational Sciences (NCATS), 2013)", "note": "About 500 (0.14%) of roughly 370,000 compounds were called active. The shares of active, inactive and inconclusive entries below differ from those in the screen. The call rests on the fitted dose curve; in most records, active means well fitted activation curve with a large enough effect; inconclusive means small, poorly fitted or top-dose-only effect; inactive means no such curve, though single readings can be large or run the other way. No potency is given beside an inconclusive call; the fits are too rough."}
{"experiment": "qHTS of alpha-syn Inhibitors; further: nearly all actives have a fitted effect of over 65% in size; further: potency means the concentration at half of the fitted maximal effect; tags describe the fitted curve by direction and shape; on growth rescue (activation): % of control where 0% means no effect", "conditions": "Yeast expressing alpha-synuclein, BacTiter-Glo, 24 h; Potency: growth rescue unless noted; growth rescue (activation): at 46.1 µM (top of the series) unless noted", "from_the_text": "The goal of this project is to identify new chemical probes capable of reversing the toxicity associated with the Parkinson disease-related protein, alpha-synuclein. Compounds will be selected on their ability to restore growth in yeast cells expressing toxic levels of alpha-synuclein. These compounds will provide a complementary approach to deciphering the tangled mechanisms of toxicity and protection that we have uncovered through genome-wide genetic screens and are beginning to uncover in a large-scale proteomics analysis with mass spectroscopy. To this end, a miniaturized assay was developed to be screened against the Molecular Libraries Small Molecule Repository (MLSMR) to discover alpha-synuclein inhibitors. Please note that in the set-up this yeast-based assay compounds that inhibit as alpha-syn, have a read-out as activators. NIH Chemical Genomics Center [NCGC] NIH Molecular Libraries Probe Centers Network [MLPCN] MLPCN Grant: NS060957 Assay Submitter (PI): Susan Lindquist, Whitehead Institute/MIT\nDispense 2.5 microL yeast galactose medium per 1536-well plate, pin compound, dispense 2.5 microL alpha-synuclein expressing yeast in galactose medium at OD600=0.02 (pregrown in raffinose medium to mid-log phase) per well, incubate for 24 hr at 30 deg C, and cell growth will be measured using 5 microL of Bactiter/Glo reagent to entire plate and read using Luminescence Protocol in ViewLux."}
{"compound": "Cc1cc(C(=O)CN2C(=O)C3CC=CCC3C2=O)c(C)n1-c1ccccc1", "note": "(stereo not drawn)", "Potency": "inconclusive [activator, full curve, poor fit]"}
{"compound": "O=C(N/N=C/c1ccc(O)c(O)c1)NC12CC3CC(CC(C3)C1)C2", "Potency": "inconclusive [activator, single point]"}
{"compound": "CC(C)(C)c1ccc(CC(=O)N2CCC2(C)C(=O)NCc2cccc3ccccc23)cc1", "note": "(stereo not drawn)", "Potency": "inconclusive [activator, single point]"}
{"compound": "Cc1ccc(Cl)cc1N1CCN(C(=O)c2ccc(CS(=O)Cc3ccc(Cl)cc3)o2)CC1", "note": "(stereo not drawn)", "Potency": "inconclusive [activator, single point]"}
{"compound": "Cc1cc(OCC(=O)N2CCN(c3ccc(F)cc3)CC2)c2c(C)cc(=O)oc2c1", "Potency": "inconclusive [activator, single point]"}
{"compound": "CC1CCCC(NC(=O)COc2ncnc3ccccc23)C1C", "note": "(stereo not drawn)", "growth rescue (activation)": "inactive: 10.2%"}
{"compound": "O=C(CSCc1ccc(F)cc1)Nc1nc2c(s1)CCCC2", "growth rescue (activation)": "inactive: 12%"}
{"compound": "N#Cc1ccc(OCC(O)CN2CCN(c3ncc(C(F)(F)F)cc3Cl)CC2)cc1", "note": "(stereo not drawn)", "Potency": "inconclusive [activator, single point]"}
{"compound": "COc1ccc(-c2cn[nH]c2-c2ccc(OC)cc2O)cc1", "Potency": "active: 22.4 µM"}
{"compound": "CCOc1cccc(C(=O)Nc2cc(-c3nn4c(C)nnc4s3)ccc2C)c1", "Potency": "inconclusive [activator, single point]"}
{"compound": "Cc1ccccc1S(=O)(=O)NC(=O)C1(C)CCN1C(=O)c1ccccc1CCc1ccccc1", "note": "(stereo not drawn)", "growth rescue (activation)": "inactive: -9.46%"}
{"compound": "COc1ccc(NC(=O)/C(C#N)=C/c2ncc([N+](=O)[O-])n2C)c(OC)c1", "Potency": "inconclusive [activator, partial curve]"}
{"compound": "Cc1cc(C(=O)NNC(=S)NCC(C)C)no1", "Potency": "inconclusive [activator, single point]"}
{"compound": "CC(C(=O)NCc1ccc(Cl)cc1)n1cccc1C(=O)c1ccccc1", "note": "(stereo not drawn)", "Potency": "inconclusive [activator, single point]"}
{"compound": "CSc1ccccc1-c1nnc(-c2ccc(Cl)cc2Cl)o1", "growth rescue (activation)": "inactive: 0.159%"}
{"compound": "c1ccc(C2CC(c3cccs3)=NN2c2ccccc2)cc1", "note": "(stereo not drawn)", "Potency": "inconclusive [activator, single point]"}
{"compound": "CC(=O)N1CC2(CC(c3ccccc3C(F)(F)F)=NO2)CN1c1ccc(Cl)cc1", "note": "(stereo not drawn)", "Potency": "active: 12.6 µM"}
{"compound": "CCCCc1ccc(NC(=O)C2(C)Cc3ccccc3C(=O)O2)cc1", "note": "(stereo not drawn)", "Potency": "inconclusive [activator, single point]"}
{"compound": "CS(=O)(=O)NC1c2cccc3cccc(c23)C1N1CCOCC1", "note": "(stereo not drawn)", "growth rescue (activation)": "inactive: -4.88%"}
{"compound": "O=S(=O)(Nc1ccc(NS(=O)(=O)c2ccccc2)cc1)c1ccccc1", "Potency": "inconclusive [activator, single point]"}
{"compound": "CCCC(C(=O)NC1CCCC1)N(CC1CCCO1)C(=O)CNS(=O)(=O)c1ccc(F)cc1", "note": "(stereo not drawn)", "Potency": "inconclusive [activator, single point]"}
{"compound": "CCN1C(=O)[C@H]2[C@@H](c3ccc(-c4ccc(OC)cc4)c(OC)c3)N3CCCC[C@@]3(C(=O)OC)[C@H]2C1=O", "Potency": "inconclusive [activator, single point]"}
{"compound": "CN1CCC(=O)N([C@H](COc2ccccc2)Cc2ccccc2)CC1", "growth rescue (activation)": "inactive: 2.85%"}
{"compound": "CCCCC(=O)NC(c1ccccc1Cl)c1ccc2cccnc2c1O", "note": "(stereo not drawn)", "Potency": "inconclusive [activator, single point]"}
{"compound": "O=c1c2ccccc2nnn1CSc1ccc2c(c1)OCCO2", "Potency": "inconclusive [activator, single point]"}
{"compound": "Cc1ccccc1-c1nc(CS(=O)(=O)CC(=O)N2CCc3ccccc3C2)c(C)o1", "Potency": "inconclusive [activator, single point]"}
{"compound": "CC(C)OC(=O)CN1C(=O)S/C(=C/c2ccc(N3CCCCC3)o2)C1=O", "growth rescue (activation)": "inconclusive: -76.9% [activator]"}
{"compound": "COc1cc(OC)cc(C(=O)NNC(=O)c2nn(C)c(=O)c3ccccc23)c1", "Potency": "inconclusive [activator, single point]"}
{"compound": "O=C1[C@H]2CCC=C[C@H]2[C@H](c2ccccc2Br)N1Cc1ccccc1", "Potency": "inconclusive [activator, single point]"}
{"compound": "CCc1ccc(C(=O)CSc2n[nH]c(-c3ccncc3)n2)cc1", "Potency": "inconclusive [activator, single point]"}
{"compound": "Clc1ccc(-c2cnnc(-c3ccccn3)n2)cc1", "Potency": "inconclusive [activator, single point]"}
{"compound": "COc1ccccc1-c1cnc2c(Nc3cccc(OC(F)(F)C(F)F)c3)nccn12", "growth rescue (activation)": "inactive: -23.1%"}
{"compound": "Cc1cccc(Cn2cc(C(=O)Nc3ccc(S(N)(=O)=O)cc3)ccc2=O)c1", "Potency": "inconclusive [activator, single point]"}
{"compound": "CCOC(=O)C1CCN(c2nc3ccccc3nc2C(C#N)C(=O)OC(C)COC)CC1", "note": "(stereo not drawn)", "Potency": "inconclusive [activator, single point]"}
{"compound": "Oc1ccc(Br)cc1/C=N/Nc1ccccn1", "Potency": "inconclusive [activator, single point]"}
{"compound": "COc1cc2c(cc1OC)CN(C(=O)c1cccc([N+](=O)[O-])c1)CC2", "Potency": "inconclusive [activator, single point]"}
{"compound": "CC(=O)N1c2ccc(Cl)cc2C2C=CCC2C1c1cccc2ccccc12", "note": "(stereo not drawn)", "growth rescue (activation)": "inactive: -30.8%"}
{"compound": "CCOc1ccc(N(C)S(=O)(=O)c2csc(C(N)=O)c2)cc1", "Potency": "inconclusive [activator, single point]"}
{"compound": "CCOC(=O)c1cc(-c2ccccc2)nn1Cc1cc(CC)no1", "Potency": "inconclusive [activator, single point]"}
{"compound": "COc1ccc(C(=O)/C=C/Nc2ccc(C)cn2)cc1OC", "Potency": "inconclusive [activator, single point]"}
{"compound": "Cn1c2nc3ccccc3c-2nc2ccccc21", "Potency": "active: 15.8 µM"}
{"compound": "CC(c1nc2ccccc2c(=O)[nH]1)N1CCCN(S(=O)(=O)c2ccc(F)cc2)CC1", "note": "(stereo not drawn)", "Potency": "inconclusive [activator, single point]"}
{"compound": "CCN(CC)c1ccc(/C=N/NC(=O)c2c(Cl)cnn2C)c(O)c1", "Potency": "inconclusive [activator, partial curve]"}
